Legend:
[1] = molecular target: T1, Robo1 (ORIGEN Company, number: TP327713) (UniProt Q9Y6N7 26-1651, limits assumed); assay: SPR (BIAcore), Robo1 bound on CM5 chip
T1 construct: also called receptor Robo1; target protein Robo1
Procedure: (§1) The affinity constant between the prepared protein and Robo1 was determined by SPR (Surface Plasmon resonance BIAcore200). The Robo1 (ORIGEN Company, number: TP327713) was bound on CM5 chip and used to analysis the interaction between fusion protein Slit2D2-HSA and receptor Robo1. Kinetic measurements were carried out according to the method referred by Canziani et al. (2004, Anal. Biochem. 325:301-307), simultaneously, the same method was applied to measure the affinity between Slit2N protein (Slit2N is a protein at N-terminal of slit2 with a molecular weight of about 120 KDa) and Robo1.

[2] = molecular target: T1, Robo1 (ORIGEN Company, number: TP327713); assay: SPR (BIAcore), Robo1 bound on CM5 chip; column head 'Kd (nM)'
T1 sequence (Q9Y6N7 26-1651 limits assumed): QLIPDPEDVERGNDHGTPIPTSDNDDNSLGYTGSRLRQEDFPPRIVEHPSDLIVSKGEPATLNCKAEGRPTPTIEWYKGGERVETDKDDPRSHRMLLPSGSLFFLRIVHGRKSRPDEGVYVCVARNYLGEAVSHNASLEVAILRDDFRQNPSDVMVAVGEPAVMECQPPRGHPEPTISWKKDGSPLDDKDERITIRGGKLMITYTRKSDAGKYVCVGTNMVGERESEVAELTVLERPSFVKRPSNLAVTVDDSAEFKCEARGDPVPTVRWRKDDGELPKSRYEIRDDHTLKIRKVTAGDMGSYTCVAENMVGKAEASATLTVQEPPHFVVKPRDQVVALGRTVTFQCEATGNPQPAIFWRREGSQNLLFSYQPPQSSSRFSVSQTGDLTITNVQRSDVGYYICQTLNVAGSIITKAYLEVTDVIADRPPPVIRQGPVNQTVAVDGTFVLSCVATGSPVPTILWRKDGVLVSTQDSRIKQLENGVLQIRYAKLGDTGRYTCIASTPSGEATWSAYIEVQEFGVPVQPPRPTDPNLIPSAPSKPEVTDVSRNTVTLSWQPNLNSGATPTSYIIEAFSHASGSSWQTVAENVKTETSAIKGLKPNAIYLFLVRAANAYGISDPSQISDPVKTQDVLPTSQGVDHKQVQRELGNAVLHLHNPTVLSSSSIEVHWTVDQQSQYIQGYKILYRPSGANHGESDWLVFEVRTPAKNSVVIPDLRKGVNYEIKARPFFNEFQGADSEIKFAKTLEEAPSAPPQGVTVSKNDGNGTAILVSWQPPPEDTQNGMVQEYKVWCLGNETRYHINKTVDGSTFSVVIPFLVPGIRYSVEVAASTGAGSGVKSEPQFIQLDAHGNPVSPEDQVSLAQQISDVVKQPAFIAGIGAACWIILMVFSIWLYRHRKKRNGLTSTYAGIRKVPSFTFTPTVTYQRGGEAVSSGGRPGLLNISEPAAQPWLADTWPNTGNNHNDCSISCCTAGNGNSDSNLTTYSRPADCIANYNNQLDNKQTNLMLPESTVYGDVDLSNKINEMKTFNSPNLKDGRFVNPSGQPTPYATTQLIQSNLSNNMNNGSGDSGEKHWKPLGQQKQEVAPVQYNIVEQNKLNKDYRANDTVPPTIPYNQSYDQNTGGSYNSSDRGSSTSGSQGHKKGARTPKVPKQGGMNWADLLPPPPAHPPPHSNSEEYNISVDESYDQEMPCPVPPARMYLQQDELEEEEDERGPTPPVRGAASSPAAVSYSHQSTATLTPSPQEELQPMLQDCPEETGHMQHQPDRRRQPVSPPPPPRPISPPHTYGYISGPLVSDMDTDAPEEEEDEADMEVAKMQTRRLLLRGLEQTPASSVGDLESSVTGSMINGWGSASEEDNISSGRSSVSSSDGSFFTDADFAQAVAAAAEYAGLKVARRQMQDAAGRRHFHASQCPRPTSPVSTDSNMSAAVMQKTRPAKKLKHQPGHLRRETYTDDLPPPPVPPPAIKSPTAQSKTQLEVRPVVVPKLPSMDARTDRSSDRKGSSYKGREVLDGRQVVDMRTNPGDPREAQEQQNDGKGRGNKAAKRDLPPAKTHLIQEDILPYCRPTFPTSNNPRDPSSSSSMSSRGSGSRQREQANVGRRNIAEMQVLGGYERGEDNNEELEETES
Procedure: as §1

- kon [1]: 177000 M⁻¹ s⁻¹
- Kd [2]: 2.8 nM
B1: fusion protein Slit2D2-HSA (ligand)
chain: LHCPAACTCSNNIVDCRGKGLTEIPTNLPETITEIRLEQNTIKVIPPGAFSPYKKLRRIDLSNNQISELAPDAFQGLRSLNSLVLYGNKITELPKSLFEGLFSLQLLLLNANKINCLRVDAFQDLHNLNLLSLYDNKLQTIAKGTFSPLRAIQTMHLAQNPFICDCHLKWLADYLHTNPIETSGARCTSPRRLANKRIGQIKSKKFRCS[about 600 residues not spelt out]
